Source: patent US20020147326A1 (GlaxoSmithKline, published 2002)

B1: CD86-Igαtp (Fc fusion)
chain (part 1 of 2): APLKIQAYFNETADLPCQFANSQNQSLSELVVFWQDQENLVLNEVYLGKEKFDSVHSKYMGRTSFDSDSWTLRLHNLQIKDKGLYQCIIHHKKPTGMIRIHQMNSELSVLANFSQPEIVPISNITENVYINLTCSSIHGYPEPKKMSVLLRTKNSTIEYDGIMQKSQDNVTELYDVSISLSVSFPDVTSNMTIFCILETDKTRLLSSPFSIELEDPQPPPDH[omitted - human IgG1 Fc with changes]PTHVNVSVVMAEVDGTCY
modifications: biotinylated in the ELISA formats
notes: also called B7.2-IgA; hexameric CD86; not shown: human IgG1 heavy chain Fc region (hinge, CH2, CH3), same as in CD80Fcαtplink
B2: CD80-Ig (Fc fusion)
chain: VIHVTKEVKEVATLSCGHNVSVEELAQTRIYWQKEKKMVLTMMSGDMNIWPEYKNRTIFDITNNLSIVILALRPSDEGTYECVVLKYEKDAFKREHLAEVTLSVKADFPTPSISDFEIPTSNIRRIICSTSGGFPEPHLSWLENGEELNAINTTVSQDPETELYAVSSKLDFNMTTNHSFMCLIKYGHLRVNQTFNWNTTKQEHFPDQ[omitted - human IgG1 Fc with C220A (EU numbers)]
modifications: biotinylated in the direct ELISA (FIGS. 10, 11); disulfide-linked Ig homodimer
notes: also called B7Ig; B7.1-Ig
B3: CD80-Igαtp (Fc fusion)
chain: VIHVTKEVKEVATLSCGHNVSVEELAQTRIYWQKEKKMVLTMMSGDMNIWPEYKNRTIFDITNNLSIVILALRPSDEGTYECVVLKYEKDAFKREHLAEVTLSVKADFPTPSISDFEIPTSNIRRIICSTSGGFPEPHLSWLENGEELNAINTTVSQDPETELYAVSSKLDFNMTTNHSFMCLIKYGHLRVNQTFNWNTTKQEHFPDQ[omitted - human IgG1 Fc with changes]PTHVNVSVVMAEVDGTCY
modifications: biotinylated in the ELISA formats (about 10 biotin per CD80-Ig monomer); unlabelled in BIAcore, flow cytometry and calorimetry
notes: Junction HFPDq/EPKSA (Gln for the native Asn); Cys to Ala in the upper hinge; also called B7-FcA; B7FcA

Assays:
[1] = target: T1, CTLA4-Ig (human, UniProt P16410 36-161); assay: ELISA: immobilized CTLA4-Ig, biotinylated protein titrated, OD 405
T1 construct: also called CTLA4-Fc; not shown: human IgG1 heavy chain Fc region (hinge, CH2, CH3) of vector COSFcLink

[2] = target: T1, CTLA4-Ig; assay: isothermal titration calorimetry at 44° C., Kd corrected to 37° C. by the van't Hoff equation
[3] = target: T1, CTLA4-Ig; assay: isothermal titration calorimetry, in solution, 37° C.
[4] = target: T1, CTLA4-Ig; assay: isothermal titration calorimetry, in solution, 44° C.
[5] = target: T1, CTLA4-Ig; assay: isothermal titration calorimetry, Kd at 37° C., measured at 37° C.
[6] = target: T2, CD28-Ig (human, UniProt P10747 19-152); assay: SPR (BIAcore), about 4000 RU CD28-Ig amine coupled, analyte 20 ug/ml
T2 construct: extracellular domain; also called CD28-Fc; not shown: human IgG1 heavy chain Fc region (hinge, CH2, CH3) from cell line ARH-77, beginning at the start of the hinge (EPKSA...)

[7] = target: T2, CD28-Ig; assay: ELISA: CD28-Ig coated on wells (curve CD28-200), biotinylated CD80-Igαtp titrated, streptavidin-HRP, OD 405
[8] = target: T2, CD28-Ig; assay: ELISA: CD28-Ig coated on wells (curve CD28-400), biotinylated CD80-Igαtp titrated, streptavidin-HRP, OD 405

T1 sequence (P16410 other isoform, or with tags, fused parts or gaps): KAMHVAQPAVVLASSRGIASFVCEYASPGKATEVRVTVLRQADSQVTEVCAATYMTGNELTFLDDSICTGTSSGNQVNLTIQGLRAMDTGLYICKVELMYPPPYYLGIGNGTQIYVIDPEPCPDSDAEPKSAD

Binder | EC50 (read off the curve) [1] | Kd [2] | Kd [3] | Molar Ratio (CTLA4-Ig per construct) [3] | ΔH [3] | Kd [4] | Molar Ratio (CTLA4-Ig per construct) [4] | ΔH [4] | Kd [5] | rate of dissociation against CD80-Ig [6] | EC50 (read off the curve) [7] | EC50 (read off the curve) [8]
B1 | ~0.01 µg/mL | 9 nM | 20 nM | 2.72 | -37 kcal/mol | 38 nM | 2.83 | -41 kcal/mol | 20 nM |  |  | 
B2 | ~0.02 µg/mL | 2 nM | 5.4 nM | 0.72 | -32 kcal/mol | 4.9 nM | 0.6 | -36 kcal/mol |  |  |  | 
B3 | ~0.004 µg/mL | 2 nM | 5.9 nM | 4.02 | -36 kcal/mol | 8.1 nM | 3.79 | -38 kcal/mol | 6 nM | ~1000 fold slower | ~0.04 µg/mL | ~0.03 µg/mL
